Experimental data taken from patent publication US20220265847A1, “METHODS AND COMPOSITIONS FOR TREATING NON-SMALL CELL LUNG CANCER” (Board of Regents, The University of Texas System, priority 2019, published 2022).

Experiments:
H1975 OR16 = assay: CD70 ADC relative cell viability; assay type: cell-based
Source text: (§1) FIG. 14A-C. CD70 antibody-drug conjugates (ADCs) target CD70+ EGFR TKI resistant cell in vitro.
(§2) To determine whether CD70 antibody drug conjugates (ADCs) are a valid approach for targeting EGFR TKI resistant cells, the inventors treated H1975 cells (CD70 low and EGFR TKI sensitive) and H1975 OR5 and H1975 OR16 (both EGFR TKI resistant and CD70 high) with increasing concentrations of the CD70 ADCs cuzatuzumab-MMAE or vorsetuzumab-MMAE. […] The inventors further observed an additive anti-tumor cell effect when osimertinib was combined with anti-CD70 ADCs. (FIG. 15).

H1975 OR5 = assay: CD70 ADC relative cell viability; assay type: cell-based
Source text: as §1, §2

B1: cuzatuzumab-MMAE (conjugate, chains of the INN, looked up)
heavy: EVQLVESGGGLVQPGGSLRLSCAASGFTFSVYYMNWVRQAPGKGLEWVSDINNEGGTTYYADSVKGRFTISRDNSKNSLYLQMNSLRAEDTAVYYCARDAGYSNHVPIFDSWGQGTLVTVSS[no letters for human IgG1 constant region]
light: QAVVTQEPSLTVSPGGTVTLTCGLKSGSVTSDNFPTWYQQTPGQAPRLLIYNTNTRHSGVPDRFSGSILGNKAALTITGAQADDEAEYFCALFISNPSVEFGGGTQLTVLGQPKAAPSVTLFPPSSEELQANKATLVCLISDFYPGAVTVAWKADSSPVKAGVETTTPSKQSNNKYAASSYLSLTPEQWKSHRSYSCQVTHEGSTVEKTVAPTECS
modifications: MMAE payload
H1975 OR16; H1975 OR16, CD70 high, EGFR TKI resistant, FIG. 14
  anti-tumor cell activity (relative cell viability): anti-tumor cell activity
H1975 OR16; H1975 OR16 vs H1975 parental (CD70 low), increasing concentrations, FIG. 14 and 16
  sensitivity to CD70 ADC versus H1975 parental cells: more sensitive
H1975 OR5; H1975 OR5, CD70 high, EGFR TKI resistant, FIG. 14
  anti-tumor cell activity (relative cell viability): anti-tumor cell activity
H1975 OR5; H1975 OR5 vs H1975 parental (CD70 low), increasing concentrations, FIG. 14 and 16
  sensitivity to CD70 ADC versus H1975 parental cells: more sensitive
